# ± gives the standard deviation of the averaged measurements. Whole data set: some 2,900 compounds, median “IRF Lucia reporter activity, fold change vs agonist alone” near 0.9, cut for the highest 2% near 2.8. This is one part of the list.
# Experiments:
# RAW-Dual [1] = test: IRF Lucia reporter activity, fold change vs agonist alone; cytotoxicity flag (confluency mask): not cytotoxic; higher = enhanced IRF activity
# Method in brief: (§1)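 RAW-Dual macrophages were seeded in DMEM at 50,000 cells/well in 384-well plates, given 50 nL of library stock by pin tool, and given a PRR agonist 1 h later. Plates were held at 37 °C, 5% CO2 for 20 hours, after which supernatant was read for IRF by QuantiLuc luminescence and for NF-κB by QuantiBlue absorbance at 620 nm. Reporter activity is expressed as fold change over wells that received agonist alone. A well was called cytotoxic when IncuCyte confluency fell below 70% of agonist controls in both mask sets.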
# RAW-Dual [2] = test: IRF Lucia reporter activity, fold change vs agonist alone; higher = enhanced IRF activity; conditions: library stock concentration (final ~1000-fold dilution): 10 mM, agonist: MPLA (TLR4) […]
# Method in brief: as §1
# RAW-Dual [3] = test: IRF Lucia reporter activity, fold change vs agonist alone; cytotoxicity flag (confluency mask): cytotoxic (confluency <70% of control); higher = enhanced IRF activity
# Method in brief: as §1
# [4] = agonist: 3'3'-cGAMP (STING) 10 ug/mL
# [5] = cytotoxicity flag (confluency mask): not cytotoxic
compound,measurement,setting,value
Cl.NCc1ccc(S(N)(=O)=O)cc1 (library stock concentration (final ~1000-fold dilution): 10 mM),IRF Lucia reporter activity,RAW-Dual [1]; [4],1.07
same,IRF Lucia reporter activity,RAW-Dual [1]; agonist: LPS (TLR4) 0.1 ug/mL,1.14
Cc1n[nH]c2ncc(C(=O)N3CCCC3c3ccc(Cl)cc3)cc12 (centres undefined) (library stock concentration (final ~1000-fold dilution): 10 mM),IRF Lucia reporter activity,RAW-Dual [1]; [4],0.178
same,IRF Lucia reporter activity,RAW-Dual [1]; agonist: LPS (TLR4) 0.1 ug/mL,0.273
CC12CCC3c4ccc(O)cc4CC(CCCCCCCCCS(=O)CCCC(F)(F)C(F)(F)F)C3C1CCC2O (centres undefined) (library stock concentration (final ~1000-fold dilution): 10 mM),IRF Lucia reporter activity,RAW-Dual [1]; [4],0.388
same,IRF Lucia reporter activity,RAW-Dual [1]; agonist: LPS (TLR4) 0.1 ug/mL,1.25
CC12CCC3c4ccc(O)cc4CC(CCCCCCCCCS(=O)CCCC(F)(F)C(F)(F)F)C3C1CCC2O (centres undefined),IRF Lucia reporter activity,RAW-Dual [2]; [5],0.825
OCC1OC(c2ccc(F)c(Cc3cc4ccccc4s3)c2)C(O)C(O)C1O (centres undefined) (library stock concentration (final ~1000-fold dilution): 10 mM),IRF Lucia reporter activity,RAW-Dual [1]; [4],1.09
same,IRF Lucia reporter activity,RAW-Dual [1]; agonist: LPS (TLR4) 0.1 ug/mL,0.939
Cn1cncc1C(N)(c1ccc(Cl)cc1)c1ccc2c(c1)c(-c1cccc(Cl)c1)cc(=O)n2C (centres undefined),IRF Lucia reporter activity,RAW-Dual [2]; cytotoxicity flag (confluency mask): cytotoxic (confluency <70% of control),0.481
Cn1cncc1C(N)(c1ccc(Cl)cc1)c1ccc2c(c1)c(-c1cccc(Cl)c1)cc(=O)n2C (centres undefined) (library stock concentration (final ~1000-fold dilution): 10 mM),IRF Lucia reporter activity,RAW-Dual [3]; [4],0.374
same,IRF Lucia reporter activity,RAW-Dual [3]; agonist: LPS (TLR4) 0.1 ug/mL,0.641
COC(=O)C1=C(C)NC(C)=C(C(=O)OC(C)C)C1c1cccc2nonc12 (centres undefined) (library stock concentration (final ~1000-fold dilution): 10 mM),IRF Lucia reporter activity,RAW-Dual [1]; [4],0.868
same,IRF Lucia reporter activity,RAW-Dual [1]; agonist: LPS (TLR4) 0.1 ug/mL,0.766
COC(=O)C1=C(C)NC(C)=C(C(=O)OC(C)C)C1c1cccc2nonc12 (centres undefined),IRF Lucia reporter activity,RAW-Dual [2]; [5],0.844
O=C(NO)c1ccc(CC(=O)N(CCO)c2ccccc2)cc1,IRF Lucia reporter activity,RAW-Dual [2]; [5],0.969
O=C(NO)c1ccc(CC(=O)N(CCO)c2ccccc2)cc1 (library stock concentration (final ~1000-fold dilution): 10 mM),IRF Lucia reporter activity,RAW-Dual [1]; [4],0.616
same,IRF Lucia reporter activity,RAW-Dual [1]; agonist: LPS (TLR4) 0.1 ug/mL,0.852
Cc1cc(C)nc(NC(=S)N2CCN(Cc3ccc(C(F)(F)F)cc3)CC2)c1 (library stock concentration (final ~1000-fold dilution): 10 mM),IRF Lucia reporter activity,RAW-Dual [1]; [4],0.622
same,IRF Lucia reporter activity,RAW-Dual [1]; agonist: LPS (TLR4) 0.1 ug/mL,1.15
Cn1c(Nc2ccc(C(F)(F)F)cc2)nc2cc(Oc3ccnc(-c4ncc(C(F)(F)F)[nH]4)c3)ccc21 (library stock concentration (final ~1000-fold dilution): 10 mM),IRF Lucia reporter activity,RAW-Dual [1]; [4],0.276
same,IRF Lucia reporter activity,RAW-Dual [1]; agonist: LPS (TLR4) 0.1 ug/mL,0.593
Cn1c(Nc2ccc(C(F)(F)F)cc2)nc2cc(Oc3ccnc(-c4ncc(C(F)(F)F)[nH]4)c3)ccc21,IRF Lucia reporter activity,RAW-Dual [2]; [5],0.921
COC1OC(CO)C(O)C(O)C1O (centres undefined) (library stock concentration (final ~1000-fold dilution): 10 mM),IRF Lucia reporter activity,RAW-Dual [1]; [4],0.994
same,IRF Lucia reporter activity,RAW-Dual [1]; agonist: LPS (TLR4) 0.1 ug/mL,1.31
COC1OC(CO)C(O)C(O)C1O (centres undefined),IRF Lucia reporter activity,RAW-Dual [2]; [5],0.995
CC(C)CC(C=O)NC(=O)C(CC(C)C)NC(=O)C(CC(C)C)NC(=O)OCc1ccccc1 (centres undefined) (library stock concentration (final ~1000-fold dilution): 10 mM),IRF Lucia reporter activity,RAW-Dual [1]; [4],1.03
same,IRF Lucia reporter activity,RAW-Dual [1]; agonist: LPS (TLR4) 0.1 ug/mL,1.41
CC(C)CC(C=O)NC(=O)C(CC(C)C)NC(=O)C(CC(C)C)NC(=O)OCc1ccccc1 (centres undefined),IRF Lucia reporter activity,RAW-Dual [2]; [5],1.11
NCc1c[nH]c(=S)n1C1CCc2c(F)cc(F)cc2C1 (centres undefined) (library stock concentration (final ~1000-fold dilution): 10 mM),IRF Lucia reporter activity,RAW-Dual [1]; [4],0.783
same,IRF Lucia reporter activity,RAW-Dual [1]; agonist: LPS (TLR4) 0.1 ug/mL,1.27
NCc1c[nH]c(=S)n1C1CCc2c(F)cc(F)cc2C1 (centres undefined),IRF Lucia reporter activity,RAW-Dual [2]; [5],1.05
COc1cc2ncnc(Nc3cccc(Cl)c3F)c2cc1OC(=O)N1CCN(C)CC1C (centres undefined) (library stock concentration (final ~1000-fold dilution): 10 mM),IRF Lucia reporter activity,RAW-Dual [1]; [4],0.804
same,IRF Lucia reporter activity,RAW-Dual [1]; agonist: LPS (TLR4) 0.1 ug/mL,1.17
CC(=O)SCC(Cc1ccccc1)C(=O)NCC(=O)OCc1ccccc1 (centres undefined) (library stock concentration (final ~1000-fold dilution): 10 mM),IRF Lucia reporter activity,RAW-Dual [1]; [4],1.07
same,IRF Lucia reporter activity,RAW-Dual [1]; agonist: LPS (TLR4) 0.1 ug/mL,0.765
CC(=O)SCC(Cc1ccccc1)C(=O)NCC(=O)OCc1ccccc1 (centres undefined),IRF Lucia reporter activity,RAW-Dual [2]; [5],0.853
S=C(NCc1ccc2c(c1)OCO2)N1CCN(c2ncnc3c2oc2ccccc23)CC1 (library stock concentration (final ~1000-fold dilution): 10 mM),IRF Lucia reporter activity,RAW-Dual [1]; [4],0.411
same,IRF Lucia reporter activity,RAW-Dual [1]; agonist: LPS (TLR4) 0.1 ug/mL,0.701
S=C(NCc1ccc2c(c1)OCO2)N1CCN(c2ncnc3c2oc2ccccc23)CC1,IRF Lucia reporter activity,RAW-Dual [2]; [5],0.255
Nc1ncnc2c1ncn2C(C=O)OC(C=O)CO (centres undefined) (library stock concentration (final ~1000-fold dilution): 10 mM),IRF Lucia reporter activity,RAW-Dual [1]; [4],0.427
same,IRF Lucia reporter activity,RAW-Dual [1]; agonist: LPS (TLR4) 0.1 ug/mL,0.724
Cc1noc(C)c1-c1ccc(-c2cc(C(N)=O)c(NC(N)=O)s2)c(OC2CCNC2)c1 (centres undefined) (library stock concentration (final ~1000-fold dilution): 10 mM),IRF Lucia reporter activity,RAW-Dual [1]; [4],0.599 ± 0.59
same,IRF Lucia reporter activity,RAW-Dual [1]; agonist: LPS (TLR4) 0.1 ug/mL,0.288 ± 0.24

# Reference: the supplement of paper PMC10037445
